Where “and” joins values, the source holds several entries; their conditions need not be identical. Equal entries are not always repeated. Inconclusive means that the source gave no clear call. Such entries were picked first, then a sample of the others. A potency beside an inconclusive call is a rough fit, not a confirmed value. Calls of active or inactive are those of the source. Unless noted, the call rests on the fitted dose curve; in most records, active means well fitted curve in the direction sought with a large enough effect; inconclusive means small, poorly fitted or top-dose-only effect, or another doubt; inactive means no such curve, though single readings can be large; an effect the other way counts as inactive or inconclusive.
What was measured:
[1] = Primary qHTS for small molecule stabilizers of the endoplasmic reticulum resident proteome: Secreted ER Calcium Modulated Protein (SERCaMP) assay (AID 1508630); conditions: SH-SY5Y GLuc-SERCaMP (Gaussia luciferase released on ER calcium loss) secretion, thapsigargin, luminescence; series mostly up to 38.4 µM
How it was run: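 The SH-SY5Y reporter protocol was run at 3 concentrations up to 38.3 uM (primary) or 11 concentrations (follow-up): 16 h compound, 100 nM thapsigargin for 4 h, then extracellular luciferase luminescence.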

[2] = A High-Content qHTS Against Drug Library for the Identification of Small Molecules that Inhibit DYT1 Early Onset Primary Dystonia-Associated Cell Pathology (AID 1645839; calls by dose curve)
How it was run: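 High-content imaging quantified EGFP-TorsinA mislocalization in HEK293-derived cells inducibly expressing DYT1 mutant torsinA, after 48 h exposure to compound given together with tetracycline induction. Cell count served as a toxicity channel alongside %pathology.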

[3] = molecular target: Cytochrome P450 3A4 (Homo sapiens) (UniProt P08684); test: Cytochrome P450 family 3 subfamily A member 4 (CYP3A4) small molecule antagonists: luciferase qHTS assay (AID 1645841; active means well fitted curve in the direction sought with a large enough effect in the repeat runs; inconclusive means weak or mixed curves; inactive means no such curve, though single readings can be large; an effect the other way counts as inactive or inconclusive; further: nearly all actives have a fitted effect of over 45% in size)
How it was run: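 Luminescent CYP3A4 activity readout: compounds plus enzyme-substrate mix 10 min at room temperature, reaction started with NADPH regenerating system for 1 h, stopped with detection reagent, read after 20 min. Ketoconazole served as control.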

[4] = Cytotoxicity counterscreen for inhibitors of SARS-CoV-2 cell entry (AID 1645845; calls by dose curve; further: nearly all actives have a fitted effect of over 50% in size); conditions: activity change, negative = cytotoxicity: at 57.1 µM (top of the series) unless noted
How it was run: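 ATP-content luminescence (ATPLite 1step, 15 min RT) read after 48 h compound exposure of Expi293F cells stably expressing human ACE2; normalized to cells-only wells and media-only wells.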

[5] = molecular target: Cytochrome P450 2D6 (Homo sapiens) (UniProt P10635); test: Cytochrome P450 family 2 subfamily D member 6 (CYP2D6) small molecule antagonists: luciferase biochemical (cell-free) qHTS assay (AID 1645840; active means well fitted curve in the direction sought with a large enough effect in the repeat runs; inconclusive means weak or mixed curves; inactive means no such curve, though single readings can be large; an effect the other way counts as inactive or inconclusive; further: nearly all actives have a fitted effect of over 55% in size)
How it was run: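 P450-Glo CYP2D6 system: proluciferin substrate converted by enzyme to luciferin, read by luminescence proportional to activity. Enzyme-substrate mix with compound 10 min at room temperature, then NADPH regeneration 1 h before detection reagent.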

[6] = molecular target: Cytochrome P450 2C9 (Homo sapiens) (UniProt P11712); test: Cytochrome P450 family 2 subfamily C member 9 (CYP2C9) small molecule antagonists: luciferase biochemical (cell-free) qHTS assay (AID 1645842; active means well fitted curve in the direction sought with a large enough effect in the repeat runs; inconclusive means weak or mixed curves; inactive means no such curve, though single readings can be large; an effect the other way counts as inactive or inconclusive; further: nearly all actives have a fitted effect of over 55% in size)
How it was run: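 P450-Glo CYP2C9 system: proluciferin substrate with enzyme in mix containing 0.4% BSA, 10 min at room temperature, then NADPH regeneration solution added and incubated 1 h at 37C. Detection reagent stopped reaction; luminescence read after 20 min as RLU.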
Potency means the concentration at half of the fitted maximal effect; tags describe the fitted curve by direction and shape.

UniProt P08684, sequence (P08684 whole entry, looked up): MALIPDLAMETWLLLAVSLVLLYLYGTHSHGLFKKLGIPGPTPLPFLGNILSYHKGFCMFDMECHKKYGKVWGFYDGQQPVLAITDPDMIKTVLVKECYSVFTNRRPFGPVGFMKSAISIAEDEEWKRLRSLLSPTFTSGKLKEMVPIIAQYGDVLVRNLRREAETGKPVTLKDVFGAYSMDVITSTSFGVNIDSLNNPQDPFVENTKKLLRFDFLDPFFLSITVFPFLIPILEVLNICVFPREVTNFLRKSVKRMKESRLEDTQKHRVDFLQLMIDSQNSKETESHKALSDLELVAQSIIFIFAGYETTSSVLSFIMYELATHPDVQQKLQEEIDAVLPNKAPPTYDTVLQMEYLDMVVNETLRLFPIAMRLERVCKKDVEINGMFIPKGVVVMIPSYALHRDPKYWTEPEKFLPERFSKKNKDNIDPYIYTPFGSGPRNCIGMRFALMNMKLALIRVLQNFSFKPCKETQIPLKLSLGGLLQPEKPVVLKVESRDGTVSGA
UniProt P11712, sequence (P11712 whole entry, looked up): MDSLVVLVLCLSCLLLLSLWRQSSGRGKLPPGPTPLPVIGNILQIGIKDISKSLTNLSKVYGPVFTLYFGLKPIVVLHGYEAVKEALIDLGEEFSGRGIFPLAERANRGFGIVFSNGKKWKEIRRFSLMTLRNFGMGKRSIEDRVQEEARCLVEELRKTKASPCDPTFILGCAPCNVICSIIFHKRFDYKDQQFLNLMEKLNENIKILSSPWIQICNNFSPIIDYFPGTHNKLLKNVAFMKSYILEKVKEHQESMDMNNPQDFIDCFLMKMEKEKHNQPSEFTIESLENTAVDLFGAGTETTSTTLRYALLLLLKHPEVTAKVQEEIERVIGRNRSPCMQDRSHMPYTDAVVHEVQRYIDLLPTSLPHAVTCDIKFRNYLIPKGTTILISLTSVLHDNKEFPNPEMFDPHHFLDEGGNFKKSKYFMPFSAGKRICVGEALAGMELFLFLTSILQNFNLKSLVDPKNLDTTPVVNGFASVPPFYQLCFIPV
UniProt P10635, sequence (P10635 whole entry, looked up): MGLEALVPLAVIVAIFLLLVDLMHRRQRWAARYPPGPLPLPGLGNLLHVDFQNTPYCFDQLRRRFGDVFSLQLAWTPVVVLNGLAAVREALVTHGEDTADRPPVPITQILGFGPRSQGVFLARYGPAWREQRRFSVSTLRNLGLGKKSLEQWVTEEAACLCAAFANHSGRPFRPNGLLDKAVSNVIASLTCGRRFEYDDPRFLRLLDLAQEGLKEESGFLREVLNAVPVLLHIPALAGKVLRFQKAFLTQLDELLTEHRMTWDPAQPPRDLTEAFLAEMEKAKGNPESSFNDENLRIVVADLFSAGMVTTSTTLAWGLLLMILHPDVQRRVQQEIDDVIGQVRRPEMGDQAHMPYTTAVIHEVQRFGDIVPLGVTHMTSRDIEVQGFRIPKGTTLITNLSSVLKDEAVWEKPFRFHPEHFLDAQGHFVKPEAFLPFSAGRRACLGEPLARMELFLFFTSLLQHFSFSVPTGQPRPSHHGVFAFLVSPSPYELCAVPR

Clc1ccccc1N1CCNCC1
Potency [1]: inconclusive: 1 µM [inhibitor, full curve] | Potency [2]: inactive | Potency [3]: inactive

Clc1ccc(CSC(Cn2ccnc2)c2ccc(Cl)cc2Cl)cc1 (configuration not stated)
Potency [1]: inconclusive: 25.1 µM [inhibitor, single point] | Potency [2]: inconclusive: 15.8 µM [inhibitor, partial curve, poor fit] | Potency [4]: inconclusive: 39.8 µM [cytotoxic, single point]

CC(CC(C#N)(c1ccccc1)c1ccccc1)N(C)C (configuration not stated)
Potency [1]: inconclusive: 50.1 µM [inhibitor, single point] | Potency [2]: inconclusive: 31.6 µM [inhibitor, single point] | Potency [3]: inconclusive: 11.2 µM [falling, partial curve]

Sc1ccccc1Cl
Potency [1]: inconclusive: 35.5 µM [inhibitor, partial curve] | Potency [5]: inactive

NN=C(N)N
Potency [1]: inconclusive: 2.82 µM [inhibitor, full curve, poor fit] and inconclusive: 10 µM [inhibitor, partial curve, poor fit] and inactive | Potency [5]: inactive

O=c1[nH]c2ccccc2n1C1CCN(CCCC(c2ccc(F)cc2)c2ccc(F)cc2)CC1
Potency [1]: inactive | Potency [2]: inconclusive: 11.2 µM [inhibitor, partial curve] | Potency [4]: inconclusive: 31.6 µM [cytotoxic, single point]

Clc1cccc(N2CCNCC2)c1
Potency [1]: inconclusive: 28.2 µM [inhibitor, single point] | Potency [2]: inactive | Potency [5]: active: 8.71 µM

CN1C[C@H](CNC(=O)OCc2ccccc2)C[C@@H]2c3cccc4c3c(cn4C)C[C@H]21
Potency [1]: inconclusive: 10 µM [inhibitor, single point] and inconclusive: 25.1 µM [inhibitor, single point] | Potency [2]: inconclusive: 17.8 µM [inhibitor, single point] | Potency [3]: inactive

NC(=O)CS(=O)C(c1ccccc1)c1ccccc1 (configuration not stated)
Potency [1]: inconclusive: 28.2 µM [inhibitor, partial curve, poor fit] | Potency [5]: inconclusive: 19.5 µM [inhibitor, partial curve, poor fit]

Clc1ccc(CO/N=C(\Cn2ccnc2)c2ccc(Cl)cc2Cl)c(Cl)c1
Potency [1]: inconclusive: 28.2 µM [inhibitor, single point] | Potency [2]: inconclusive: 35.5 µM [inhibitor, single point] | Potency [4]: inconclusive: 28.2 µM [cytotoxic, single point]

O=C(N[C@@H]1N=C(c2ccccc2F)c2cccc3c2N(CC3)C1=O)c1cc2ccccc2[nH]1
Potency [1]: inconclusive: 10 µM [inhibitor, single point] | Potency [2]: inconclusive: 5.62 µM [inhibitor, single point] | Potency [6]: inconclusive: 8.71 µM [inhibitor, partial curve]

CC#C[C@]1(O)CC[C@H]2[C@@H]3C[C@H](C)C4=CC(=O)CC[C@]4(C)[C@H]3CC[C@@]21C
Potency [1]: inconclusive: 11.2 µM [inhibitor, single point] | Potency [2]: inconclusive: 10 µM [inhibitor, partial curve] | Potency [5]: inconclusive: 38.9 µM [inhibitor, single point]

Nc1ccc([N+](=O)[O-])cc1
Potency [1]: inconclusive: 22.4 µM [inhibitor, partial curve, poor fit] | Potency [2]: inconclusive: 1 µM [inhibitor, full curve] | Potency [6]: inactive

Nc1ccc(Cl)cc1
Potency [1]: inconclusive: 10 µM [inhibitor, full curve] | Potency [2]: inconclusive: 2.82 µM [inhibitor, full curve] | Potency [5]: inconclusive: 48.3 µM [inhibitor] | Potency [6]: inconclusive: 25.6 µM [inhibitor, partial curve]

O=C(O)C(=O)c1cn(Cc2ccccc2)c2ccc(-c3ccc(OC(F)(F)F)cc3)cc12
Potency [1]: inactive | Potency [5]: inconclusive: 21.3 µM [inhibitor, single point]

Clc1ccc(COC(Cn2ccnc2)c2ccc(Cl)cc2Cl)cc1 (configuration not stated)
Potency [1]: inconclusive: 11.2 µM [inhibitor, single point] and inconclusive: 25.1 µM [inhibitor, single point] | Potency [2]: inconclusive: 20 µM [inhibitor, partial curve, poor fit] | Potency [5]: active: 0.219 µM | Potency [4]: inconclusive: 14.1 µM [cytotoxic, partial curve] and inconclusive: 39.8 µM [cytotoxic, single point]

CCCCC/C=C\C/C=C\C/C=C\C/C=C\CCCC(=O)NCC(=O)O
Potency [1]: inconclusive: 2.82 µM [inhibitor, full curve, poor fit] and inactive | Potency [2]: inconclusive: 35.5 µM [inhibitor, single point] | Potency [5]: inconclusive: 27.5 µM [inhibitor, single point] | Potency [6]: inconclusive: 19.5 µM [inhibitor, partial curve]

CNC(=O)NC(O)C(Cl)(Cl)Cl (configuration not stated)
Potency [1]: inconclusive: 8.91 µM [inhibitor, partial curve, poor fit] | Potency [2]: inactive | Potency [6]: inactive

Cn1cc(C2=C(c3cn(C4CCN(Cc5ccccn5)CC4)c4ccccc34)C(=O)NC2=O)c2ccccc21
Potency [1]: inconclusive: 9.4 nM [inhibitor, full curve, poor fit] and inactive | Potency [2]: inconclusive: 5.62 µM [inhibitor, single point] | Potency [4]: inactive

Clc1ccc(CCC(Cn2ccnc2)Sc2c(Cl)cccc2Cl)cc1 (configuration not stated)
Potency [1]: inconclusive: 28.2 µM [inhibitor, single point] | Potency [2]: inconclusive: 14.1 µM [inhibitor, partial curve, poor fit] | Potency [6]: active: 0.0123 µM | Potency [4]: inconclusive: 39.8 µM [cytotoxic, single point]

Nc1ccc(N)cc1
Potency [1]: inactive | Potency [2]: inconclusive: 5.62 µM [inhibitor, single point] | Potency [6]: active: 15.5 µM

O=c1c(C2CC(c3ccc(-c4ccc(Br)cc4)cc3)Cc3ccccc32)c(O)sc2ccccc12 (configuration not stated)
Potency [1]: inactive | Potency [2]: inconclusive: 22.4 µM [inhibitor, single point] | Potency [5]: inactive | Potency [3]: inconclusive: 1.23 µM [falling, full curve, poor fit] | Potency [4]: inconclusive: 3.98 µM [cytotoxic, full curve, poor fit]

O=C1CN=C(c2ccccc2)c2cc([N+](=O)[O-])ccc2N1
Potency [1]: inactive | Potency [2]: inactive | Potency [3]: inconclusive: 13.8 µM [falling, partial curve, poor fit] | Potency [6]: inconclusive: 43.6 µM [inhibitor, single point]

COc1cc(C[C@@H](C)N)c(OC)cc1Br
Potency [1]: inconclusive: 50.1 µM [inhibitor, single point] | Potency [2]: inactive

CCc1ccc(C2CCNCC2)cc1
Potency [1]: inconclusive: 31.6 µM [inhibitor, single point] | Potency [5]: active: 0.347 µM

NC(=O)CN1CCCC1=O
Potency [1]: inconclusive: 8.91 µM [inhibitor, partial curve, poor fit] | Potency [6]: inactive

N#Cc1nn(-c2c(Cl)cc(C(F)(F)F)cc2Cl)c(N)c1S(=O)C(F)(F)F (configuration not stated)
Potency [1]: inactive | Potency [3]: inconclusive: 19.5 µM [falling, partial curve, poor fit]

O=C(O)CCCOc1ccc(Cl)cc1Cl
Potency [1]: inconclusive: 39.8 µM [inhibitor, partial curve, poor fit] | Potency [5]: inactive | Potency [6]: inconclusive: 78 µM [inhibitor]

COP(=O)(OC)OC=C(Cl)Cl
Potency [1]: inconclusive: 2 µM [inhibitor, full curve] | Potency [5]: inactive | Potency [4]: inactive

COc1cc(CC(C)N)cc(OC)c1OC (configuration not stated)
Potency [1]: inconclusive: 50.1 µM [inhibitor, partial curve] | Potency [3]: inconclusive: 43.2 µM [falling, single point]

CCCSP(=O)(OCC)SCCC
Potency [1]: inconclusive: 14.1 µM [inhibitor, partial curve, poor fit] | Potency [6]: inconclusive: 44.7 µM [inhibitor]

COCCOCCO
Potency [1]: inconclusive: 3.16 µM [inhibitor, full curve] | Potency [6]: inactive
